Test results: the supplement of paper PMC8948288
The sequences are guide strands of siRNAs; only the seed at positions 2 to 7 varies.

Tests used:
H4 = test: cell viability relative to siNT1 (ATP content); H4 human neuroglioma and GL261 mouse glioma; higher = less toxic; conditions: siRNA concentration 10 nM; 96 h; human
Description: (§1)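 Arrayed screen of all 4096 6mer seeds. Each seed sits at guide-strand positions 2-7 of a neutral 19mer siRNA backbone (siNT1-based, passenger strand 2'-O-methyl modified at positions 1-2 to block RISC loading, 3' DNA overhangs). The guide strand is built here as U + seed + ACAUGUAAACCA. Cells were reverse transfected in triplicate in 384-well plates (H4 at 10 nM, GL261 at 25 nM) with Lipofectamine RNAiMAX. Viability was read as ATP content (CellTiter-Glo) 96 h after transfection and normalised to siNT1 (%).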

GL261 = test: as above; conditions: siRNA concentration 25 nM; 96 h; mouse
Description: as §1
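Note: cells reverse transfected with siRNA duplexes via lipid reagent, ATP read by luminescence, triplicate wells, values scaled to mean viability with non-targeting control siNT1.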

Row | Sequence | cell viability (H4) [%] | cell viability (GL261) [%]
1 | UAACUACACAUGUAAACCA | 106 | 48.2
2 | UAACUAGACAUGUAAACCA | 113 | 57
3 | UAACUAUACAUGUAAACCA | 116 | 78
4 | UAACUCAACAUGUAAACCA | 121 | 40.2
5 | UAACUCCACAUGUAAACCA | 69.5 | 18.8
6 | UAACUCGACAUGUAAACCA | 95.6 | 32.9
7 | UAACUCUACAUGUAAACCA | 71.7 | 26.1
8 | UAACUGAACAUGUAAACCA | 104 | 56.6
9 | UAACUGCACAUGUAAACCA | 65.7 | 22.6
10 | UAACUGGACAUGUAAACCA | 58.5 | 38.9
11 | UAACUGUACAUGUAAACCA | 83.5 | 19.2
12 | UAACUUAACAUGUAAACCA | 111 | 58.3
13 | UAACUUCACAUGUAAACCA | 76 | 36.3
14 | UAACUUGACAUGUAAACCA | 98.5 | 58.9
15 | UAACUUUACAUGUAAACCA | 107 | 57.2
16 | UAAGAAAACAUGUAAACCA | 114 | 60.3
17 | UAAGAACACAUGUAAACCA | 111 | 20.4
18 | UAAGAAGACAUGUAAACCA | 88.9 | 55.3
19 | UAAGAAUACAUGUAAACCA | 79.5 | 69.7
20 | UAAGACAACAUGUAAACCA | 76.3 | 36.6
21 | UAAGACCACAUGUAAACCA | 80.7 | 21.6
22 | UAAGACGACAUGUAAACCA | 116 | 43.9

Row | Sequence | cell viability (H4) [%] | cell viability (GL261) [%]
23 | UAAGACUACAUGUAAACCA | 99.1 | 23.1
24 | UAAGAGAACAUGUAAACCA | 99.2 | 46.7
25 | UAAGAGCACAUGUAAACCA | 73.8 | 33
26 | UAAGAGGACAUGUAAACCA | 79.5 | 28.9
27 | UAAGAGUACAUGUAAACCA | 105 | 37.1
28 | UAAGAUAACAUGUAAACCA | 122 | 50.2
29 | UAAGAUCACAUGUAAACCA | 98.5 | 64.3
30 | UAAGAUGACAUGUAAACCA | 97.4 | 39.7
31 | UAAGAUUACAUGUAAACCA | 122 | 36.6
32 | UAAGCAAACAUGUAAACCA | 91.1 | 48.4
33 | UAAGCACACAUGUAAACCA | 72.5 | 42
34 | UAAGCAGACAUGUAAACCA | 107 | 62.1
35 | UAAGCAUACAUGUAAACCA | 97.5 | 52.2
36 | UAAGCCAACAUGUAAACCA | 97.2 | 62.8
37 | UAAGCCCACAUGUAAACCA | 87.1 | 29.6
38 | UAAGCCGACAUGUAAACCA | 89.5 | 46.7
39 | UAAGCCUACAUGUAAACCA | 81.2 | 46.4
40 | UAAGCGAACAUGUAAACCA | 104 | 49.2
41 | UAAGCGCACAUGUAAACCA | 89.7 | 42.5
42 | UAAGCGGACAUGUAAACCA | 120 | 47.2
43 | UAAGCGUACAUGUAAACCA | 118 | 53.6
44 | UAAGCUAACAUGUAAACCA | 107 | 54.8

Row | Sequence | cell viability (H4) [%] | cell viability (GL261) [%]
45 | UAAGCUCACAUGUAAACCA | 125 | 19.1
46 | UAAGCUGACAUGUAAACCA | 103 | 43.2
47 | UAAGCUUACAUGUAAACCA | 97.6 | 47.8
48 | UAAGGAAACAUGUAAACCA | 117 | 49.7
49 | UAAGGACACAUGUAAACCA | 40.2 | 22.2
50 | UAAGGAGACAUGUAAACCA | 97.4 | 48.8
51 | UAAGGAUACAUGUAAACCA | 84.4 | 46.9
52 | UAAGGCAACAUGUAAACCA | 81.2 | 50.7
53 | UAAGGCCACAUGUAAACCA | 47.7 | 14.4
54 | UAAGGCGACAUGUAAACCA | 79.7 | 38.9
55 | UAAGGCUACAUGUAAACCA | 80.5 | 31.1
56 | UAAGGGAACAUGUAAACCA | 94.2 | 47.7
57 | UAAGGGCACAUGUAAACCA | 38.5 | 15.7
58 | UAAGGGGACAUGUAAACCA | 97.5 | 33.5
59 | UAAGGGUACAUGUAAACCA | 93.1 | 30.3
60 | UAAGGUAACAUGUAAACCA | 99.1 | 50.5
61 | UAAGGUCACAUGUAAACCA | 98.6 | 30.4
62 | UAAGGUGACAUGUAAACCA | 82.9 | 77.1
63 | UAAGGUUACAUGUAAACCA | 96.5 | 56.5
64 | UAAGUAAACAUGUAAACCA | 109 | 88.9
65 | UAAGUACACAUGUAAACCA | 57.3 | 55.3
66 | UAAGUAGACAUGUAAACCA | 89.1 | 71.3

Row | Sequence | cell viability (H4) [%] | cell viability (GL261) [%]
67 | UAAGUAUACAUGUAAACCA | 84.6 | 73.3
68 | UAAGUCAACAUGUAAACCA | 81.5 | 49.8
69 | UAAGUCCACAUGUAAACCA | 55.6 | 15.5
70 | UAAGUCGACAUGUAAACCA | 112 | 37.5
71 | UAAGUCUACAUGUAAACCA | 84.4 | 50.1
72 | UAAGUGAACAUGUAAACCA | 109 | 52.4
73 | UAAGUGCACAUGUAAACCA | 79.6 | 47.8
74 | UAAGUGGACAUGUAAACCA | 88.9 | 24.7
75 | UAAGUGUACAUGUAAACCA | 81.8 | 37.5
76 | UAAGUUAACAUGUAAACCA | 90.9 | 65.1
77 | UAAGUUCACAUGUAAACCA | 71.1 | 57.5
78 | UAAGUUGACAUGUAAACCA | 111 | 53.7
79 | UAAGUUUACAUGUAAACCA | 105 | 58.8
80 | UAAUAAAACAUGUAAACCA | 103 | 67.5
81 | UAAUAACACAUGUAAACCA | 113 | 67.8
82 | UAAUAAGACAUGUAAACCA | 91.2 | 80.8
83 | UAAUAAUACAUGUAAACCA | 88.9 | 53.1
84 | UAAUACAACAUGUAAACCA | 94.2 | 73
85 | UAAUACCACAUGUAAACCA | 61.7 | 41.5
86 | UAAUACGACAUGUAAACCA | 111 | 73.5
